Experimental data from the supplement of paper PMC12632987.
The full ranking holds about 2,300 sequences; the median of “median log2 fold change of GCK-ALFA target abundance (FLAG IP / Myc IP barcode read proportion)” is about 0.095, and the lowest 2% start at about -0.47. Some of the results follow.

B1: LC3A_132_252 (protein)
chain: SEELLKKALEELKEILDKVVDLLKAGKDPWPAIQELDKKAEEYAKKLSLEETEKLVEESEKYAEELFEKRLDPNNEEARRTLDHIEMLFESVLIEKELES
B2: LC3A_free_46_2389 (protein)
chain: AEGEIHALFSAGDLETIEKVAEESRKAIEEVAEEYGVEVEVKTEIIKNEDGKYELYIDVKIKGEDLETVEKAADEIVERLEEIAKKHGLKLASILSFEET
B3: LC3A_28_820 (protein)
chain: SAVDERIEKFLKEAKEAAEKGEEVTLVLEVTGEDTLEDVEKKAEALKEAAEILKDLKSVGIIVDLTEPISQESLDLLIETGEEVEEKYPNVSVVIALPEE
B4: LC3A_28_728 (protein)
chain: SRLEESIEKALKEAKEAAEKGEEVVIEITVPGDATEEDIEKLIEALEEIAKILSSLKNQTIVINVEGGVAQEHIDKIADKAEEIEKKYPNVTVIIALDEE
B5: LC3A_28_1065 (protein)
chain: NKIEEELEKALKEAREAAAAGEEVTVTLTIDKNSTEEDVEKVLETMEEIAEIAKDSPAVSIIVDVDNPNKEEVTKKIAEKGDELEKKYPNVTVLIALSEE
B6: LC3A_147_411 (protein)
chain: WRVTVDVDILTKNAEEEVIEYFKELVEELRAKGYEVELEIEVEKLPDGETYIKVKITVYAPTEEEAQAAADYILDKIDEMEEELKDKILGSLISVEIEKE
B7: LC3A_free_0_2115 (protein)
chain: KKSVVEVVVILDDKTSEEKAKEFYEELKKKAEELAKKYGWEVEVELSKVDGSWVITIRLTSESEDIDKALEVADELSKAAEEIAKKLGLDATIYESVYLE
B8: LC3A_3_1511 (protein)
chain: MEEFIEKVRELLKSFGASEEVIELSEKALKLLLERGYEKAAEKFFELLKEAKDLSNELLLEFAEEVLELLESTDLSEEEIIKEIEEIFKTTKNESEIEEL
B9: LC3A_28_807 (protein)
chain: SPVRENVERAREEARRQIERGEPVFVEITLPADATPEEIEYVAEAIREIAREAAEAGIESVDVVVDSANNQEAITAISETEDRLRAEGLPINVIIALDEP
B10: LC3A_17_536 (protein)
chain: MEELREELEEALEEAKKLVEQLKKYDPEAAKEFEKKLKEIEKLIEEGKLREAAEALEKLARELADRIDSLKWEDPVEQEVLLMEANGIELRAIGILLKLD
B11: LC3A_6_2058 (protein)
chain: KVVTVTVDILLKEEKLEEGKKLLKEKVEKIEKELKEKAKELGKKLLSVKIEEGEDGLHITVTFEAEYHPEMEKKMLELADELVEELEPVSEASMISYEVT
B12: LC3A_3_1647 (protein)
chain: PEEEVEETVELLREAGHSEETIEAFRETAEALLERGYEEALRVLIEETRELLDLPDEILLAMLEEVLRVIKEEDLSEEEVIEEIRRIARIARSEGEIIEL
B13: LC3A_28_948 (protein)
chain: MTIEEQVEKALKEAKEAKEKNEPVVITLKVGGGATQEDVDLVIETIKEIAELHKDIDGVSIIVDVDGGVPQEFVDRIADTLDEVEEKYPNINAILALDED
B14: LC3A_147_444 (protein)
chain: MIAELIVDILTDNSKEEVIKALKEVEEELKKKGYNVEVEIKVEKIDENTYYIEVTFTARGVSEEEAKKFLEEAIELLDKMEEKLKDKILGSIISGEIIEE
B15: LC3A_3_1454 (protein)
chain: MEELKKELLKILEENGFSEETKKAALELFKELEKKGYINAMKTLIEEMKKMKDVSSEIALDMFKELLEIVKTKDLSEEEIIKEIESLAAAAIAEQEIIEL
B16: LC3A_3_1675 (protein)
chain: LEEAVQRLEDAERAAGASEEEIARLREAVLRLAEVSSEKVTLHLIELLLEASDVPAEEKIETVEDIVATIEKENLSEEEQLELVESEVSAARKATEIEEL
B17: LC3A_3_1414 (protein)
chain: MEEELKAALEALKEAGHSEETLKALEELVKELLERGAEEEAKRVLELVLEAKDISSELLLEVLKEALRLLTEEKKSPEEVIKELERELRIARSEQEIIEL
B18: LC3A_3_1774 (protein)
chain: AEELIARARALLEAQGRSPETIAAAEAAIRALLERGFEEAARTFIALLEENADLPDEELLAMAREILHVVETQDLTEEEVIARIREEARLARLAHEMDSL
B19: LC3A_free_26_2158 (protein)
chain: EKFVDIAAIDEALDLLEKAKKLLEEQGGEAKELAELVKEAKKLVEKETLESLKKAAELLKEIKKLIEEKLKLPEEVKKELLKLAEEAKEKVEEVIEIMES

Biological target: MAP1LC3A, Q9H492
Experiment: median log2 fold change of GCK-ALFA target abundance (FLAG IP / Myc IP barcode read proportion) (log2 ratio); each designed protein is fused to an ALFA-tag nanobody in HEK293 cells to bring the named protein to FLAG-tagged glucokinase (GCK); Myc marks an untargeted standard; higher = target protein stabilised (more abundant)
Details: target protein: 3xFLAG-MCP-GCK-ALFA reporter; HEK293 landing pad (RPLP)
Summary of the method: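 An ALFA-nanobody-fused binder library was recombined into HEK293 landing-pad cells and induced with 2 μg mL^−1 doxycycline. Cells were transfected with a plasmid expressing a FLAG-tagged target and a Myc-tagged standard. After 48 h, lysates underwent anti-FLAG and anti-Myc immunoprecipitation, and circular RNA barcodes were reverse transcribed, amplified and sequenced. Target abundance is the per-binder median log2 ratio of FLAG to Myc barcode read proportions. Barcodes needed ≥10^−7 proportion in both replicates, binders ≥3 barcodes per replicate, and a 10^−6 pseudocount was added; the two replicates were pooled.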

Binder | median log2 fold change
B1 | -0.196
B2 | 0.158
B3 | 0.139
B4 | 0.198
B5 | 0.281
B6 | -0.213
B7 | -0.145
B8 | 0.128
B9 | -0.0721
B10 | 0.194
B11 | 0.0685
B12 | 0.138
B13 | 0.198
B14 | -0.427
B15 | 0.232
B16 | 0.262
B17 | 0.315
B18 | 0.242
B19 | 0.0848
